Reference: PubChem BioAssay (Tox21)
The inconclusive results got no clear call from the source; some entries with a clear call stand among them for comparison. No potency is given beside an inconclusive call; the fits are too rough. A structure can be active in one record and inactive in another. Calls of active or inactive are those of the source. The call rests on the fitted dose curve; in most records, active means well fitted activation curve with a large enough effect in the repeat runs; inconclusive means weak or mixed curves; inactive means flat fitted curve, though single readings scatter.

test: A CellTox Green Cytotoxicity Assay to monitor cytotoxicity in HepG2 cells - 16 hour (AID 1224876); settings: CellTox Green fluorescence; series mostly up to 76.8 µM; cytotoxicity increase: at the top concentration; further: nearly all actives have a fitted effect of over 45% in size
Source text: National Center for Advancing Translational Sciences [NCATS]
NIH Chemical Genomics Center [NCGC]
U.S. Environmental Protection Agency [EPA]
National Institutes of Environmental Health Sciences [NIEHS]
National Toxicology Program [NTP]
Cell-based models are critical for drug discovery. Determining the natural cytotoxic effects resulting from test compounds is an essential research activity. A CellTox Green Cytotoxicity Assay to monitor cytotoxicity in real time of continues cell culture during 40 hours of the compound treatment was used to screen Tox21 10K library compounds in HepG2 cells. CellTox Green Cytotoxicity Assay is a nonlytic, homogeneous, biofluorescent method to measure cytotoxicity in cell culture after experimental manipulation. The assay system uses a proprietary asymmetric cyanine dye that is excluded from viable cells but preferentially stains the dead cell's DNA. […] Viable cells produce no appreciable increases in fluorescence. Therefore, the fluorescence signal produced by the binding interaction with dead cell DNA is proportional to cytotoxicity.
The mixture of HepG2 cell suspension and reagents were dispensed at 600cells/6 ul/well in 1536-well tissue culture treated black solid bottom plates using a Multidrop dispenser. After the assay plates were incubated at a 37 C/5% CO2 incubator for 5 hours, 23 nL of compounds dissolved in DMSO, positive and negative controls was transferred to the assay plate by a pintool work station. The plates were incubated at 37 C for 40 hours. The fluorescence intensity were measured at 0h, 8h, 16h, 24h, 32h and 40h time points using ViewLux plate reader during compound treatment.
On the % scale 0 is the no-effect control and ±100 the full control effect; potency means the concentration at half of the fitted maximal effect; tags describe the fitted curve by direction and shape.

**Q.** With CO[C@]12C[C@@H](COC(=O)c3cncc(Br)c3)CN(C)[C@@H]1Cc1cn(C)c3cccc2c13 as the compound, how does the Potency read?
**A.** active: 23.9 µM

**Q.** With CN(C)CCOC(=O)COc1ccc(Cl)cc1 as the compound, how does the Potency read?
**A.** inactive

**Q.** For NC(=O)c1ncn([C@@H]2O[C@H](CO)[C@@H](O)[C@H]2O)c1O, which Potency is on record?
**A.** inconclusive [activator, partial curve, poor fit]

**Q.** Which Potency does the source give for CCCCCC=O here?
**A.** inconclusive [activator, partial curve, poor fit]

**Q.** Which Potency does the source give for CCCCN(CCCC)CCCOC(=O)c1ccc(N)cc1 here?
**A.** inconclusive [activator, single point]

**Q.** Which Potency does the source give for CCN(CC)CCNC(=O)COc1ccc(Cl)cc1 here?
**A.** inconclusive [activator, partial curve]

**Q.** Which “cytotoxicity increase” value does the source give for C=CCSCC1Nc2cc(Cl)c(S(N)(=O)=O)cc2S(=O)(=O)N1 (stereo not given) here?
**A.** inactive: -10.2% [at 35.3 µM]

**Q.** For [Cl][Sc]([Cl])[Cl], which “cytotoxicity increase” value is on record?
**A.** inactive: 25.4%

**Q.** Which Potency does the source give for CCOC(=O)n1ccn(C)c1=S here?
**A.** inconclusive [activator, single point]

**Q.** Which Potency does the source give for CCCCCCCCCCCCCCCCCC#N here?
**A.** inconclusive [activator, single point]

**Q.** For CCCCCCCCCCCC, which “cytotoxicity increase” value is on record?
**A.** inactive: -0.38%

**Q.** With COc1ccc(OC)c(NC(=O)CC(C)=O)c1 as the compound, how does the “cytotoxicity increase” value read?
**A.** inactive: -5.76%

**Q.** Which cytotoxicity increase does the source give for O=S(=O)(O)c1ccc2c(N=Nc3ccc(S(=O)(=O)O)c4ccccc34)c(O)c(S(=O)(=O)O)cc2c1 here?
**A.** inactive: -11.6% [at 6.97 µM]

**Q.** With CCOB(OCC)OCC as the compound, how does the Potency read?
**A.** inconclusive [activator, partial curve, poor fit]

**Q.** For CN=C(NC#N)NCCSCc1nc[nH]c1C, which Potency is on record?
**A.** inconclusive [activator, single point]

**Q.** For CCCCCCCC(=O)N(C)C, which Potency is on record?
**A.** inconclusive [activator, single point]

**Q.** Which Potency does the source give for C=COCC1CCC(COC=C)CC1 (stereo not given) here?
**A.** inconclusive [activator, single point]

**Q.** Which Potency does the source give for O=S(=O)(O)c1cc(O)ccc1O here?
**A.** inconclusive [activator, single point]

**Q.** With C[C@]12CCC(=O)C=C1CC[C@@H]1[C@@H]2[C@@H](O)C[C@@]2(C)[C@H]1CC[C@]2(O)C(=O)CO as the compound, how does the Potency read?
**A.** inactive

**Q.** For C=C(C)OC(C)=O, which Potency is on record?
**A.** inconclusive [activator, single point]

**Q.** For Cc1cc(NS(=O)(=O)c2ccc(N)cc2)nc(C)n1, which Potency is on record?
**A.** inconclusive [activator, single point]

**Q.** Which Potency does the source give for CC1(C)SC(C)(C)SC(C)(C)S1 here?
**A.** inconclusive [activator, single point]

**Q.** Which Potency does the source give for N[C@@H]1CONC1=O here?
**A.** inconclusive [activator, single point]

**Q.** With COc1cccc(Br)c1 as the compound, how does the Potency read?
**A.** inconclusive [activator, single point]

**Q.** With Cc1ccc(C(=O)c2ccc(CC(=O)O)n2C)cc1 as the compound, how does the Potency read?
**A.** inconclusive [activator, single point]

**Q.** For O=Cc1ccc(CO)o1, which Potency is on record?
**A.** inconclusive [activator, single point]

**Q.** For COS(=O)(=O)O, which Potency is on record?
**A.** inconclusive [activator, single point]

**Q.** Which Potency does the source give for CC/C(C)=N/O here?
**A.** inactive

**Q.** With OCC(O)[C@@H](O)[C@H](O)[C@H](O)CO[C@H]1O[C@H](CO)[C@@H](O)[C@H](O)[C@H]1O (stereo not given in full) as the compound, how does the “cytotoxicity increase” value read?
**A.** inactive: -4.64%

**Q.** For CC/C=C\C#N, which “cytotoxicity increase” value is on record?
**A.** inactive: 5.72%

**Q.** For CCc1ncc(C)[nH]1, which “cytotoxicity increase” value is on record?
**A.** inactive: -12.1%

**Q.** Which “cytotoxicity increase” value does the source give for O=C(Cn1ccnc1[N+](=O)[O-])NCc1ccccc1 here?
**A.** inactive: -7.53% [at 35.3 µM]

**Q.** Which Potency does the source give for O=C(O)/C=C/C(=O)O here?
**A.** inconclusive [activator, partial curve]

**Q.** For CCCN(C1CCN(C(=O)C2CCNCC2)CC1)[C@@H]1CCc2ccc(OC)cc2C1, which Potency is on record?
**A.** inconclusive [activator, single point]

**Q.** With CCCCC(C)C(=O)O (stereo not given) as the compound, how does the Potency read?
**A.** inconclusive [activator, single point]

**Q.** Which Potency does the source give for CC1OC1C1CCC2(C)OC2C1 (stereo not given) here?
**A.** inconclusive [activator, single point]

**Q.** With O=C1NC(=O)C(c2ccccc2)(c2ccccc2)N1 as the compound, how does the Potency read?
**A.** active: 23.9 µM

**Q.** For O=C(CO)[C@@H](O)[C@H](O)[C@@H](O)CO, which Potency is on record?
**A.** inconclusive [activator, single point]

**Q.** For COCCOC[C@H](CC1(C(=O)NC2CCC(C(=O)O)CC2)CCCC1)C(=O)Oc1ccc2c(c1)CCC2 (stereo not given in full), which “cytotoxicity increase” value is on record?
**A.** inactive: 3.47%

**Q.** With O=C(O)CCCl as the compound, how does the “cytotoxicity increase” value read?
**A.** inactive: -10.1%
